The target of test [1] is T1, AND-1 HMG (protein used for size-exclusion chromatography) (human) (UniProt O75717).
T1 sequence: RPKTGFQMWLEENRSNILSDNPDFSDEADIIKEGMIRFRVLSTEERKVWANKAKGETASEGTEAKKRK
Put plainly: SEC; 42 nmol GST-B(1–78) and 84 nmol AND-1 HMG in 250 µl on Superdex 200 10/300 GL; 25 mM HEPES pH 7.2, 100 mM KCl, 0.5 mM TCEP; fractions by SDS-PAGE; both purified. For orientation: In gel filtration, larger molecules generally elute earlier.

Amino acid sequences for entries named in this document (tags omitted). A change or cut given only in a name is not applied to a line headed by its entry.
UniProt P09884: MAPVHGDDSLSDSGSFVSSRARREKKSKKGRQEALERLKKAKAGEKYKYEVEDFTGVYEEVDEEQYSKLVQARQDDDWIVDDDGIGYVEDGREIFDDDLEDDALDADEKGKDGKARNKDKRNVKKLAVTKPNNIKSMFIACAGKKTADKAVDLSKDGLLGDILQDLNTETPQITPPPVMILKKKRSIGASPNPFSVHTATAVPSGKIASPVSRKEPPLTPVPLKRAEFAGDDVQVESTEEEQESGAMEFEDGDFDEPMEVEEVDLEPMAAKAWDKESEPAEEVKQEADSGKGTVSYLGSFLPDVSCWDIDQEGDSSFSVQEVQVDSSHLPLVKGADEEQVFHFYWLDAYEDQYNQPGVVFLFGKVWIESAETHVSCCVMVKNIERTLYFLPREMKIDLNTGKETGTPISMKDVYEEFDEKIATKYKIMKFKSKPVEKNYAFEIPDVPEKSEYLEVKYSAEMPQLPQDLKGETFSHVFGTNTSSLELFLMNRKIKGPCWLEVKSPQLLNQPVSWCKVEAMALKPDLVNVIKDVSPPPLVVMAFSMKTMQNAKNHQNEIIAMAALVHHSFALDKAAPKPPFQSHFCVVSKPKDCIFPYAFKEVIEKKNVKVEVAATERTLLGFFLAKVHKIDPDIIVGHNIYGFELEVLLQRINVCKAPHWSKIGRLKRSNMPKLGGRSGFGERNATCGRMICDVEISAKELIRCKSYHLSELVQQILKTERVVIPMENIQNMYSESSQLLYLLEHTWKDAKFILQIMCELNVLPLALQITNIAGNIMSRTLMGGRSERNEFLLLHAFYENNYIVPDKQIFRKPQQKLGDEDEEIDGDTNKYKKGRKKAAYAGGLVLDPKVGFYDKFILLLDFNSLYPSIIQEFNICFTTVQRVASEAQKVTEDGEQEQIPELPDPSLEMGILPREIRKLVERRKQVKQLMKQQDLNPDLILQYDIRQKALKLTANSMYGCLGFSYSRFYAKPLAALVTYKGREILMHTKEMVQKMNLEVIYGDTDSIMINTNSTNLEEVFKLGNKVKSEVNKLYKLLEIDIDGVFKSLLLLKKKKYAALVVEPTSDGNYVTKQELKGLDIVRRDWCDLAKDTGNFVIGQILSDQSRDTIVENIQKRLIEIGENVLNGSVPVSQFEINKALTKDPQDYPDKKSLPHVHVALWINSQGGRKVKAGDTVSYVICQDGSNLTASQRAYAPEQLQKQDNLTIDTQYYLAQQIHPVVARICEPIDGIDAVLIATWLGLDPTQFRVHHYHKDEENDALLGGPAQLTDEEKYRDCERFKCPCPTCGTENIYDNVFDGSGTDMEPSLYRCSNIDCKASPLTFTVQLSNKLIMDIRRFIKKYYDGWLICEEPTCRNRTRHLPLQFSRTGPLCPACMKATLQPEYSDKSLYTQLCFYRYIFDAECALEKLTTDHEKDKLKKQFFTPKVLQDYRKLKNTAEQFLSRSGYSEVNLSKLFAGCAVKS
UniProt P49642: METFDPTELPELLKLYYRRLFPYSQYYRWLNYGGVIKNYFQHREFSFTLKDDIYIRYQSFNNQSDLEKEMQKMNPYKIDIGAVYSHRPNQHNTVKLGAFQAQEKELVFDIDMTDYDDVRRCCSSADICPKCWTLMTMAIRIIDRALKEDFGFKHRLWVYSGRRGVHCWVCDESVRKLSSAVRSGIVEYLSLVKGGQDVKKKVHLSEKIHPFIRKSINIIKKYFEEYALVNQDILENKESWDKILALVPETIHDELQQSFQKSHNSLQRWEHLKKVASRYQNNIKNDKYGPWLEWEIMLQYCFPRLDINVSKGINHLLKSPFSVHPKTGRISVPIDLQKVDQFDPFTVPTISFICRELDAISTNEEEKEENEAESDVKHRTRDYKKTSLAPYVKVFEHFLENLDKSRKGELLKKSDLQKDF
UniProt P49643: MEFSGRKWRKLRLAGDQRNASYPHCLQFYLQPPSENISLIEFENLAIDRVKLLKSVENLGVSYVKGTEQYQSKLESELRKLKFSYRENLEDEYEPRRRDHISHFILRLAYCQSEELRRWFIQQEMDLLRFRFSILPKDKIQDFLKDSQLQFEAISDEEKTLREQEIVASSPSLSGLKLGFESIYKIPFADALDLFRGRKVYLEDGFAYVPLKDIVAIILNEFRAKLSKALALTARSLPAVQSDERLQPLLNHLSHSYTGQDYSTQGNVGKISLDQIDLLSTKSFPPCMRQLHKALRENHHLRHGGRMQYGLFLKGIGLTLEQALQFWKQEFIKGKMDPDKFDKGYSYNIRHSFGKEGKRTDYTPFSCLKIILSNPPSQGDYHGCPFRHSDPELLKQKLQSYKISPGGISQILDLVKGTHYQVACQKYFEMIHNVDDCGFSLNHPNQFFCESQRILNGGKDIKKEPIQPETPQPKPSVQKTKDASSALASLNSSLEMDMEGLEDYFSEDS

The target in test [2] is T2, MBP-tagged AND-1 HMG box (1017–1076) I1047E (human) (UniProt O75717).
T2 sequence: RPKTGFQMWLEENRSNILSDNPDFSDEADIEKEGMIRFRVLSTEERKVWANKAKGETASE
Put plainly: pull-down; MBP-AND-1 constructs bound to 100 µl amylose resin, 25 nmol GST-B added as prey; PD buffer, 2.5 mg/ml BSA, 4°C; eluted with 20 mM maltose; Coomassie; both purified.

The target in test [3] is T3, MBP-tagged AND-1 HMG box (1017–1076) M1051E (human) (UniProt O75717).
T3 sequence: T2 sequence with E31I, M35E
The description is as above.

Test [4] concerns the target T4, MBP-tagged AND-1 HMG box (1017–1076), wild type (human) (UniProt O75717).
T4 sequence: T2 sequence with E31I
The description is as above.

In test [5] the target is T5, GST-Pol α (148–171), wild type (human).
T5 sequence: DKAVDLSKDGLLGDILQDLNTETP
Put plainly: pull-down; GST-B fusion proteins (in figure 6a also GST-Pol α CIP, equimolar) bound to 100 µl glutathione agarose, 2.2 nmol AND-1 (1–1129, 316–1129 or 336–826) added as prey; PD buffer, 2.5 mg/ml BSA, 4°C; Coomassie, anti-His western blot in figure 6a; both purified. Background: A western blot detects proteins with antibodies after separation by electrophoresis.

The target of test [6] is Truncated Pol α/primase (PolαΔN-BΔN-PriS-PriL) (human) (UniProt P09884+Q14181+P49642+P49643). Description: pull-down; StrepII-tagged Pol α/primase bound to 100 µl Strep-Tactin Superflow resin, about 2.4 nmol AND-1 added as prey; PD buffer (PBS, 5% glycerol, 0.5 mM TCEP, 0.2% Igepal), 2.5 mg/ml BSA, 4°C; eluted with 10 mM desthiobiotin; Coomassie and anti-His western blot; both purified.

The target in test [7] is T6, GST-Pol α (148–171) double alanine mutant I162A, L163A (AA) (human).
T6 sequence: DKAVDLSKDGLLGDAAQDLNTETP
Description: pull-down; GST-Pol α fusion proteins bound to 100 µl glutathione agarose, 20 nmol AND-1 SepB added as prey; PD buffer, 2.5 mg/ml BSA, 4°C; eluted with 20 mM reduced glutathione; Coomassie; both purified.

Numbering of substitutions follows the chain as printed. Numbers in names are those of the source. These are yes or no findings as the source states them, for the method shown. Some results given as binding are weak or reduced against the parent protein; the word gives no strength. Tags and fused reporters may be left off the sequences shown.

B1: GST-BNTD (B subunit amino acids 1–78) (domain or fragment, human, UniProt Q14181 1-78, looked up)
chain: MSASAQQLAEELQIFGLDCEEALIEKLVELCVQYGQNEEGMVGELIAFCTSTHKVGLTSEILNSFEHEFLSKRLSKAR
notes: human DNA polymerase α B subunit, residues 1-78 (four-helix bundle N-terminal domain); also called GST-B(1–78); B N-terminal domain; source: E. coli Rosetta2(DE3), purified (Ni-NTA agarose)
Turning to B1, the binding result is “binds” in test [1], “no binding (tested: 25 nmol GST-B added)” in test [2] and “no binding (tested: 25 nmol GST-B added)” in test [3].

B2: GST-BNTD (1–78) I46A (domain or fragment, UniProt Q14181 1-78)
chain: B1 chain with I46A
Consider B2, for which the binding entry in test [4] is on record as “no binding (tested: 25 nmol GST-B added)”.

B3: GST-BNTD (1–78) I14A (domain or fragment, UniProt Q14181 1-78)
chain: B1 chain with I14A
As to B3, in test [4], the binding result was “no binding (tested: 25 nmol GST-B added)”.

B4: GST-BNTD (1–78) F15A (domain or fragment, UniProt Q14181 1-78)
chain: B1 chain with F15A
B4: the binding entry in test [4] is “no binding (tested: 25 nmol GST-B added)”.

B5: Full-length His10-myc-tagged AND-1 (1–1129) (natural protein, human, UniProt O75717 1-1129, looked up)
chain: MPATRKPMRYGHTEGHTEVCFDDSGSFIVTCGSDGDVRIWEDLDDDDPKFINVGEKAYSCALKSGKLVTAVSNNTIQVHTFPEGVPDGILTRFTTNANHVVFNGDGTKIAAGSSDFLVKIVDVMDSSQQKTFRGHDAPVLSLSFDPKDIFLASASCDGSVRVWQISDQTCAISWPLLQKCNDVINAKSICRLAWQPKSGKLLAIPVEKSVKLYRRESWSHQFDLSDNFISQTLNIVTWSPCGQYLAAGSINGLIIVWNVETKDCMERVKHEKGYAICGLAWHPTCGRISYTDAEGNLGLLENVCDPSGKTSSSKVSSRVEKDYNDLFDGDDMSNAGDFLNDNAVEIPSFSKGIINDDEDDEDLMMASGRPRQRSHILEDDENSVDISMLKTGSSLLKEEEEDGQEGSIHNLPLVTSQRPFYDGPMPTPRQKPFQSGSTPLHLTHRFMVWNSIGIIRCYNDEQDNAIDVEFHDTSIHHATHLSNTLNYTIADLSHEAILLACESTDELASKLHCLHFSSWDSSKEWIIDLPQNEDIEAICLGQGWAAAATSALLLRLFTIGGVQKEVFSLAGPVVSMAGHGEQLFIVYHRGTGFDGDQCLGVQLLELGKKKKQILHGDPLPLTRKSYLAWIGFSAEGTPCYVDSEGIVRMLNRGLGNTWTPICNTREHCKGKSDHYWVVGIHENPQQLRCIPCKGSRFPPTLPRPAVAILSFKLPYCQIATEKGQMEEQFWRSVIFHNHLDYLAKNGYEYEESTKNQATKEQQELLMKMLALSCKLEREFRCVELADLMTQNAVNLAIKYASRSRKLILAQKLSELAVEKAAELTATQVEEEEEEEDFRKKLNAGYSNTATEWSQPRFRNQVEEDAEDSGEADDEEKPEIHKPGQNSFSKSTNSSDVSAKSGAVTFSSQGRVNPFKVSASSKEPAMSMNSARSTNILDNMGKSSKKSTALSRTTNNEKSPIIKPLIPKPKPKQASAASYFQKRNSQTNKTEEVKEENLKNVLSETPAICPPQNTENQRPKTGFQMWLEENRSNILSDNPDFSDEADIIKEGMIRFRVLSTEERKVWANKAKGETASEGTEAKKRKRVVDESDETENQEEKAKENLNLSKKQKPLDFSTNQKLSAFAFKQE
notes: the oligomeric state was measured only on the SepB constructs; also called His-myc-AND-1; human CTF4-orthologue AND-1; source: Sf9 insect cells (baculovirus, MultiBac), purified (Ni-NTA, Q-Sepharose)
In the case of B5, the binding result in test [5] was “no binding”; in test [6], “no binding (tested: about 2.4 nmol AND-1 added)”.

B6: AND-1 SepB (336–826) (domain or fragment, human, UniProt O75717 336-826, looked up)
chain: GDFLNDNAVEIPSFSKGIINDDEDDEDLMMASGRPRQRSHILEDDENSVDISMLKTGSSLLKEEEEDGQEGSIHNLPLVTSQRPFYDGPMPTPRQKPFQSGSTPLHLTHRFMVWNSIGIIRCYNDEQDNAIDVEFHDTSIHHATHLSNTLNYTIADLSHEAILLACESTDELASKLHCLHFSSWDSSKEWIIDLPQNEDIEAICLGQGWAAAATSALLLRLFTIGGVQKEVFSLAGPVVSMAGHGEQLFIVYHRGTGFDGDQCLGVQLLELGKKKKQILHGDPLPLTRKSYLAWIGFSAEGTPCYVDSEGIVRMLNRGLGNTWTPICNTREHCKGKSDHYWVVGIHENPQQLRCIPCKGSRFPPTLPRPAVAILSFKLPYCQIATEKGQMEEQFWRSVIFHNHLDYLAKNGYEYEESTKNQATKEQQELLMKMLALSCKLEREFRCVELADLMTQNAVNLAIKYASRSRKLILAQKLSELAVEKAAELTAT
notes: source: E. coli Rosetta2(DE3), purified (Ni-NTA, Q-Sepharose, TEV cleavage, Superdex 200)
As to B6, the binding result in test [7] was “no binding (tested: 20 nmol AND-1 SepB added)”.

The values above are taken from publication PMC5717350, “The human CTF4-orthologue AND-1 interacts with DNA polymerase α/primase via its unique C-terminal HMG box” (Open Biology, 2017).
